In article PMC10668032 one finds binding signal data, which are given here for 109 sequences.

The other results are listed elsewhere or left out. At the low end of the ranking, values are background and their order means little.

The test concerns the target SIX1 homeodomain (reference allele) (UniProt Q15475). The test is described as follows: universal protein binding microarray. Conditions: Universal all-10-mer PBM (8x60K, AMADID 030236), 300 nM GST-tagged protein, Alexa Fluor 488 anti-GST; buffer, salt, pH and temperature not stated; high values mean tight binding; most listed sequences are background and not binding sites; double strand, one strand shown.
Take GAAGAGCA: the binding signal is -0.195 E-score.

Take ATCGGTAG: the binding signal is 0.114 E-score.

On to CACCCGGA, for which the binding signal was determined as 0.276 E-score.

Consider CGAAGTCG, for which the binding signal was -0.22 E-score.

Take TACCAATA: the binding signal was 0.204 E-score.

With CGCCCCGC, the binding signal was -0.0403 E-score.

CGTGGCTA: the binding signal is -0.0774 E-score.

Take ATCAGGCG: the binding signal stood at 0.25 E-score.

In the case of TAATAAGA, the binding signal is -0.105 E-score.

Take TACTGATA: the binding signal turned out to be 0.418 E-score.

As to GATCGGTA, the binding signal was 0.336 E-score.

ATGTGCGC: the binding signal was -0.182 E-score.

As for TATCCGAA, the binding signal came out at 0.334 E-score.

Consider CACAGACA, for which the binding signal is 0.0152 E-score.

With AACAAGAG, the binding signal is -0.208 E-score.

Consider CAATGTTA, for which the binding signal was -0.229 E-score.

As to AACGACTA, the binding signal is -0.0864 E-score.

CTATAGCA: the binding signal came to 0.0266 E-score.

As for GGCAGACA, the binding signal was -0.157 E-score.

As for ACAACACG, the binding signal is 0.0354 E-score.

As for GCTTGGTA, the binding signal amounted to 0.108 E-score.

Consider AAAAAGGA, for which the binding signal was -0.0833 E-score.

CGAGCTAG: the binding signal came to 0.0143 E-score.

On to CTCACTAC, for which the binding signal is 0.0261 E-score.

Consider AACGTAGA, for which the binding signal was -0.0516 E-score.

Take GCGATAGA: the binding signal stood at 0.0476 E-score.

As for GGCCGTGA, the binding signal is -0.102 E-score.

Consider GGACGTAC, for which the binding signal was -0.182 E-score.

Turning to AGCGAGAT, the binding signal is 0.217 E-score.

As to CTTAACGC, the binding signal is -0.126 E-score.

Consider GCAGACTA, for which the binding signal is -0.218 E-score.

Consider CGGCGGAG, for which the binding signal came to 0.042 E-score.

For the sequence TGGGAGAA, the binding signal is -0.0945 E-score.

Consider CGAATGTA, for which the binding signal came to 0.0571 E-score.

Regarding GGCAATCA, the binding signal is -0.0816 E-score.

With AGGACAAA, the binding signal is -0.328 E-score.

For the sequence GTTCTGGA, the binding signal is -0.0068 E-score.

As for CAATATCA, the binding signal came to 0.306 E-score.

Take CGCAGACA: the binding signal was -0.111 E-score.

Regarding CTAAAGTC, the binding signal is -0.232 E-score.

As for ACGAGTAA, the binding signal is -0.0391 E-score.

For GTGAGCCA, the binding signal was -0.0401 E-score.

With GAAGGACA, the binding signal is -0.131 E-score.

As to GTGCGCCA, the binding signal was -0.142 E-score.

As to CAGGGCGG, the binding signal was -0.00367 E-score.

As to GCCCAAAC, the binding signal is -0.146 E-score.

For AGGGATTA, the binding signal worked out at 0.305 E-score.

Turning to GATGTCTA, the binding signal was -0.0479 E-score.

For CGAACACG, the binding signal is -0.0519 E-score.

As for GATAAGGC, the binding signal turned out to be 0.0313 E-score.

On to CGATGATA, for which the binding signal amounted to 0.445 E-score.

In the case of ACATGACA, the binding signal stood at 0.126 E-score.

Turning to GCCGCAGC, the binding signal is -0.233 E-score.

CAGGTTGG: the binding signal is -0.12 E-score.

On to TGTTTCAA, for which the binding signal was -0.159 E-score.

As for ATTTAGTC, the binding signal was -0.0853 E-score.

In the case of AGGTTTCG, the binding signal is 0.0667 E-score.

For the sequence AGTCACTC, the binding signal is -0.189 E-score.

Turning to ACTAAGAG, the binding signal was found to be 0.0877 E-score.

As to GACGACCA, the binding signal is -0.194 E-score.

For the sequence ATAACGTA, the binding signal came to 0.119 E-score.

Turning to GTCCTCCA, the binding signal is -0.1 E-score.

Turning to GGTGAAGA, the binding signal is -0.000135 E-score.

Take AGCCCCCG: the binding signal is -0.0692 E-score.

In the case of TAGCGTAA, the binding signal was -0.155 E-score.

TGAATTAA: the binding signal was -0.0102 E-score.

Turning to CACCACAC, the binding signal was 0.173 E-score.

As to TCCCATCA, the binding signal was -0.0976 E-score.

In the case of ACTATCTA, the binding signal stood at 0.154 E-score.

On to CCCAACGC, for which the binding signal was -0.0505 E-score.

With ATAGCGAG, the binding signal turned out to be 0.00321 E-score.

For the sequence TCCACCAA, the binding signal was -0.0352 E-score.

In the case of AAGTAGGA, the binding signal is -0.0758 E-score.

Regarding CGGCTTAC, the binding signal was -0.116 E-score.

AGCTTTTG: the binding signal is -0.225 E-score.

Regarding AGACGTCT, the binding signal was determined as 0.0412 E-score.

In the case of TACCAAGA, the binding signal stood at 0.084 E-score.

Take ACTATAAA: the binding signal was -0.191 E-score.

Consider AACCTGGA, for which the binding signal was -0.0116 E-score.

As for CTGTCGTC, the binding signal was -0.121 E-score.

As to CCCATTTA, the binding signal was -0.0492 E-score.

For the sequence CGGGAGTC, the binding signal came out at 0.0622 E-score.

Consider ATCATGTC, for which the binding signal is 0.295 E-score.

As for ACCCTTGC, the binding signal is -0.0246 E-score.

As to GCCTCTCC, the binding signal was determined as 0.0212 E-score.

Turning to GACTACAC, the binding signal turned out to be 0.0206 E-score.

For the sequence CAATGTTC, the binding signal was -0.211 E-score.

For the sequence CTAGAACA, the binding signal was -0.0503 E-score.

On to CTCTCGGC, for which the binding signal is -0.12 E-score.

Turning to AGATTATC, the binding signal stood at 0.14 E-score.

For the sequence CTTGGGTC, the binding signal is -0.159 E-score.

In the case of AGTGGCTG, the binding signal was -0.0379 E-score.

In the case of GCAGTCAA, the binding signal is -0.298 E-score.

On to ACCGTAGA, for which the binding signal amounted to 0.0323 E-score.

As to CCACAACC, the binding signal is -0.0539 E-score.

For CCGCTATA, the binding signal stood at 0.176 E-score.

For the sequence CGGAGTAC, the binding signal is 0.0699 E-score.

As for CTGTGGCC, the binding signal is -0.178 E-score.

As for ACTACTGC, the binding signal is -0.126 E-score.

On to GGTTGCTA, for which the binding signal was -0.192 E-score.

With CGCGTATC, the binding signal was found to be 0.424 E-score.

As for ATGAGTGA, the binding signal came to 0.126 E-score.

With ATGTCGTA, the binding signal was 0.0798 E-score.

Regarding CATGCCTA, the binding signal was -0.146 E-score.

As for AGGTACCT, the binding signal is -0.263 E-score.

In the case of GAGTGTCC, the binding signal was -0.0242 E-score.

Turning to AGCCAGTC, the binding signal is -0.089 E-score.

CTATCCGC: the binding signal was found to be 0.36 E-score.

AAAAAAAT: the binding signal is -0.241 E-score.
